Measured values from the supplement of paper PMC11417369.
The list shows a part of the results.

Each sequence was assayed on PfAP2-HC AP2 domain (GST-tagged) (assay: gcPBM binding intensity (ln(normalized median fluorescence intensity)); higher = stronger DNA binding).
In short: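 GST-fused DNA-binding domains of P. falciparum, expressed in E. coli, were applied at about 25 μg on average for 1 h to an Agilent 4 × 180k array of primer-extended double-stranded 36-bp intergenic genomic probes and negative controls. Binding intensity is the highest Masliner-normalised natural-log median intensity across replicate spots of either probe orientation, measured with Alexa488 anti-GST antibody and a 488 nm scan.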

Sequence	gcPBM binding intensity (ln)
TGAAAATTAATAAAAAGTACATAGTCAGATTTGTGA [XGTACX_site2450]	9.83
TCTGTGTTTTTGGGTACACACAAATAGCTTGTATAT [CACACA_site4002]	9.92
TTCCTTAATCAATATTGTACTTTTTATAAATTTAGT [XGTACX_site3678]	9.7
TATTTTTTCTTAAACACACACATATATATATATAAT [CACACA_site5567]	9.95
CTAAACAAAAAATAATGTACACATACATAAAAAATA [XGTACX_site1808]	9.81
CCCGAACAAACAAATAAACACACAAAAAAAAATATA [CACACA_site8540]	9.86
TATTGAAAAAATAAAAGTACAAACTCTTATAATATG [XGTACX_site8196]	9.59
AACACATACAAACACACACACAAAAAAAAAAAAAAA [CACACA_site393]	10.4
ATTATATATGTATGGTGTACTAAGAATATTTTTTTA [XGTACX_site1950]	9.55
ATTCAATATAAATACACACACACTTTTAATAATTAA [CACACA_site5963]	10.2
ATTCACTGGTATGCATGAAAAAAAATATTATTATAA [CACACA_negctrl_site702]	9.42
TATATATATTTATACACACACATATATTTATATATT [CACACA_site484]	9.97
TTATGTGTATACTAAGAACACACAAGTTACTTGGTG [CACACA_site8467]	9.86
TGAATACTTATGTTCGCACACATGCAAATTAAAAAA [CACACA_site4048]	9.8
ATTTTGATAACCGTACGTACATATATATATATATAT [XGTACX_site6605]	9.95
AAAAAAACGATCGATCGTACTTATATTTACACATTC [XGTACX_site2883]	9.74
ACATTCAATAAACGTCGTACACTTTCCTTTTTATGA [XGTACX_site3274]	9.72
ACATGGTGATAATACTGTACAAAAATAAATAAATAC [XGTACX_site897]	10.2
TTATTTTTCTAAAAAGCATGCAAATAAAGATATGAA [TGCATGCA_site1032]	9.39
TTGTTTGGTTATAATTGTACGCATGTAATTACATAT [XGTACX_site4972]	9.84
TTTTATAGTCTTATGGGTACAAAATATTAACCCACG [XGTACX_site1131]	9.37
ATATATATTTTATTATGTACTTACTTCTTTTCTTAA [XGTACX_site6163]	9.79

Sequence	gcPBM binding intensity (ln)
TAGACTCCCAGACACACACACACACCCATATAATAT [CACACA_site593]	10.5
TTTTTTTTTTTTGGTGCATGCACATTTTGTTTTTTT [TGCATGCA_site570]	9.95
TATTATTATTGTTGATGTACATTTAATATAATATAT [XGTACX_site4482]	9.64
TTTAATATATATATGTGTACATATAAATTATATATA [XGTACX_site8511]	9.49
TTTATATTTTAAAAAATAATATTATGTATTTTTAAA [TGCATGCA_negctrl_site507]	9.22
GTACTTATTAAATGTGCATGTTGATATATAAATGTA [TGCATGCA_site902]	9.6
ATATAATAAACGTGTACACAATTAAATTATTATATA [CACACA_site5017]	9.69
ATATACATAAAAATATGTACATATAAAATATATACA [XGTACX_site2394]	9.7
TTATTAAAAATGTATTGTACAAATTTATTAGTAAAT [XGTACX_site4799]	9.32
ATTTATACAAAGCTTCGTACATAATGTATTCTTTTT [XGTACX_site2166]	9.83
TTTTAATTGTTTATTTGTACATATGTTTAATTATAT [XGTACX_site571]	10.1
TTTTTAAAAAAATTGATTCTTTTTCTTTTTTTTCTT [XGTACX_negctrl_site127]	9.36
TTTTTTGCTTGGGTGAGAAAAAATAAAATAAAGGAA [TGCATGCA_negctrl_site139]	9.09
TTATAATCTTTTGGTTCTATAGAATATCAAAAAATA [CACACA_negctrl_site1149]	9.29
AAAAAATAAAAGGAAAAAAAAAAAAAAAAAAAAAAT [CACACA_negctrl_site635]	9.56
TATTATTGTCATTTTTTTTTTTTTTTTTTCTATTTC [XGTACX_negctrl_site114]	9.53
TTTTGCGAAAAAAGGTGTACTGTAAATATATTGAGG [XGTACX_site8941]	9.43
AGCACCCACCAACACACACACACACCCACCCACCGA [CACACA_site368]	11.2
AAATAAATAAATATACGTACATATATATAATATATA [XGTACX_site5124]	9.78
TTTTTTTTTAATTACATAAAATAAAAATATTTCTAT [CACACA_negctrl_site584]	9.38
TTAATATGTTTAACCATTTTACATAAATTGATTTGT [CACACA_negctrl_site1100]	9.82
TTTTTTTTGATTTGTTTGCACTTATTTCCACAATAA	9.68

Sequence	gcPBM binding intensity (ln)
TACGTAAATTTTAATACACACTATAGGATATTCTGC [CACACA_site5418]	9.58
TTGTATCTTCATTTTATCAGAAAAAAAAAAAAAAAT [CACACA_negctrl_site775]	9.24
ATATATATATATAGGGGTACTTAAATTTTACTAACC [XGTACX_site1832]	9.74
ATTTTATTTATATACACACACATATATATATTATAT [CACACA_site822]	10.1
AAAGGGTTACAAGAGGAACACACAAAAAAATAAATA [CACACA_site8406]	10.1
AATAAATAAATAAATTAATATATATATATATATAGA [CACACA_negctrl_site1661]	9.66
TCATATAAAACATGCACACATATGTACTCTTATAAA [CACACA_site3748]	9.75
TTTATTAATGGACACACACACACACCCAAAATAAAA [CACACA_site4294]	10.5
TATATTTATATATGTTGTACTCTCCAATAATATTCC [XGTACX_site4438]	9.62
TATATATTTATATTTACACACAGTTACTATGTAGAT [CACACA_site3292]	9.92
ATTAAATGATCAAGGTGTACATTAACAAGAACTATA [XGTACX_site7022]	9.72
TGAATAAAAAAACCTAGTACTTAAATAAGTATATTT [XGTACX_site7690]	9.69
TATATATATACATACGTACACACAAATATTAAAATA [CACACA_site1950]	9.88
TAAAAAAAATAGAAACGTACATAAAAAATAAATAAT [XGTACX_site5796]	10.2
TAGATAAAATTAAAATGTACAAACCTTTTCCCTTAT [XGTACX_site1136]	9.54
ATATATATATATATATGTACTTATTTATTTTATATA [XGTACX_site8810]	9.54
TTTTTTTTATCAAATTGTACATATACAAAGGTGATC [XGTACX_site8054]	9.41
ATTTTATTTTTTAATAGTACTCATTTTTTATGTGAA [XGTACX_site5494]	9.59
ATATATATATATGATACATGCATATATTTTTTCTTC [TGCATGCA_site216]	9.96
TATATATATATAAAGGTGCATATCTTTACGTATGTC [GTGCAC_site9665]	9.67
ATAAAATGGGCAAACACACACAAAAAAAAGATATAT [CACACA_site1648]	10.3
AGGGGCGAAACAAAGGTGCTTTTATAAAATATGTAA	9.41

Sequence	gcPBM binding intensity (ln)
CCCAATAATTAAACAACACACATATATATCTGTAAT [CACACA_site5667]	10.1
AGAAATCATCTGAATTGTACTAACAATTTTTTTTAA [XGTACX_site6191]	9.43
AGAGAAGAAAACAAAACACACACATATATCTTAATA [CACACA_site8699]	10.2
AACTTAAAAAAAAAAAAAAAAAAAAAAAAAAAAAAA [GTGCAC_negctrl_site34]	9.07
CTTAAATCTACTATTTGTACATATTTTATTATTAAA [XGTACX_site6151]	9.69
TATTATAATAAAATATGTACACACATACACACATAT [XGTACX_site2360]	10.3
AGAGGGGAAAACATGATGCACTAGTATAACCAAGAA	9.8
TTTCCTTATAAAAATACACACAAACTTTCATTAAAA [CACACA_site5953]	9.61
TCATATTATTATATATGTACATACCAATATATTATA [XGTACX_site2988]	9.73
TAGATATGTCTAAAAAGTACTTTCTATAACAATTCT [XGTACX_site6678]	9.4
AACACCAAACAAAGGTGTACATATAGGAAAAAATCT [XGTACX_site1006]	9.68
TACACGCAGAAACACACACACACACCCATATATATA [CACACA_site637]	11.4
TATCACATATTATGATGTACAAAGATTCTGACTAAT [XGTACX_site2770]	9.45
TGTTATATATATACAAACATACACATTTATAAACAA [TGCATGCA_negctrl_site235]	9.6
AAAAAAAGAAAAAAAACACACACAAATATAAATAAA [CACACA_site8309]	10.9
TTATGATCATTTATATGTACACATAATTTTTGTGCT [XGTACX_site5568]	9.79
TATTAATTTCTTTTTTCTCATCACTTTCAAAATGAA [CACACA_negctrl_site1055]	9.13
GTTCAAATTCTTATACCTTTTTATTGAGCCATAATA [CACACA_negctrl_site210]	9.58
GAATGAATGATAAATTTTTTTTTCTTTTTTTTTTTG [CACACA_negctrl_site333]	9.27
AGCATATATTAAACATGTACATAAATATATTATATA [XGTACX_site1451]	9.66
TGATAACTAAATACATGTACAAATTAAAAAGAAAAA [XGTACX_site3080]	9.89
TAATGATTATATGACTGTACATTTGTAGGTATAATT [XGTACX_site3373]	9.6
